The supplement of paper PMC9174493
This is one part of the list. Single values of this set are uncertain. Values with irradiation are relative to irradiated vehicle.

What follows are compounds tested on A549-Dual (assay: ISRE reporter (Lucia luciferase) activity, viability-corrected, relative to vehicle (fold change vs vehicle); higher = more activation of STING-IRF / NF-kB immune response reporter). Settings: 0.3 µM; irradiation: 8 Gy/4 fr.

Compound | ISRE reporter
CC1=C(CC(=O)O)c2cc(F)ccc2/C1=C\c1ccc(S(C)=O)cc1 (stereo unspecified) [Sulindac] | 1.04
C1N2CN3CN1CN(C2)C3 [Methenamine] | 0.997
COc1ccc2cc(C(C)C(=O)[O-])ccc2c1.[Na+] (stereo unspecified) [Naproxen Sodium] | 0.927
Cc1ccc(Cl)c(Nc2ccccc2C(=O)[O][Na])c1Cl [Meclofenamate Sodium] | 1.14
O=C(OCCOCCO)c1ccccc1Nc1cccc(C(F)(F)F)c1 [Etofenamate] | 0.933
O=C([O-])c1cc(N=Nc2ccc(O)c(C(=O)[O-])c2)ccc1O.[Na+].[Na+] [Olsalazine Sodium] | 0.84
CC(=O)Nc1ccc(OC(=O)c2ccccc2OC(C)=O)cc1 [Benorylate] | 0.957
CO/N=C(\C(=O)NC1C(=O)N2C(C(=O)OCOC(=O)C(C)(C)C)=C(C)CSC12)c1csc(N)n1.Cl (stereo unspecified) [Cefetamet pivoxil hydrochloride] | 0.923
CCC(C(=O)O)c1ccc(N2Cc3ccccc3C2=O)cc1 (stereo unspecified) [Indobufen] | 0.941
CS(=O)(=O)O.Cc1ccc(NC(=O)c2ccc(CN3CCN(C)CC3)cc2)cc1Nc1nccc(-c2cccnc2)n1 [Imatinib Mesylate (STI571)] | 0.909
CC(C(=O)O)c1ccc(C(=O)c2ccccc2)s1 (stereo unspecified) [Tiaprofenic acid] | 1.16
CCc1nc(N)nc(N)c1-c1ccc(Cl)cc1 [Pyrimethamine] | 1.12
COc1cc(C2c3cc4c(cc3C(OC3OC5COC(C)OC5C(O)C3O)C3COC(=O)C23)OCO4)cc(OC)c1O (stereo unspecified) [Etoposide] | 1.12
CN(C)CCC(c1ccc(Br)cc1)c1ccccn1.O=C(O)/C=C\C(=O)O (stereo unspecified) [Brompheniramine hydrogen maleate] | 0.916
CC12CCC3c4ccc(O)cc4CC(CCCCCCCCCS(=O)CCCC(F)(F)C(F)(F)F)C3C1CCC2O (stereo unspecified) [Fulvestrant] | 1.02
O=C([O-])CC(O)(CC(=O)[O-])C(=O)[O-].O=C([O-])CC(O)(CC(=O)[O-])C(=O)[O-].[BiH6+3].[K+].[K+].[K+] [Gastrodenol] | 1.18

Compound | ISRE reporter
CCCCC1(COC(=O)CCC(=O)O)C(=O)N(c2ccccc2)N(c2ccccc2)C1=O [Suxibuzone] | 1.26
O=C(O)Cc1ccccc1Nc1c(Cl)cccc1Cl.OCCN1CCCC1 [Diclofenac Epolamine] | 0.749
Cl.N=C1CCCN1Cc1[nH]c(=O)[nH]c(=O)c1Cl.O=c1[nH]c(=O)n(C2CC(O)C(CO)O2)cc1C(F)(F)F.O=c1[nH]c(=O)n(C2CC(O)C(CO)O2)cc1C(F)(F)F (stereo unspecified) | 0.561
NC(CO)(CO)CO [Trometamol] | 0.933
COc1ccc2c(c1)c(CC(=O)O)c(C)n2C(=O)c1ccc(Cl)cc1 [Indomethacin] | 0.908
Cn1cnc([N+](=O)[O-])c1Sc1ncnc2nc[nH]c12 [Azathioprine] | 0.945
NCCNc1ccc(NCCN)c2c1C(=O)c1ccncc1C2=O.O=C(O)/C=C\C(=O)O.O=C(O)/C=C\C(=O)O [Pixantrone Maleate] | 0.555
CC(=O)Oc1cccc2c1C(=O)c1c(OC(C)=O)cc(C(=O)O)cc1C2=O [Diacerein] | 0.839
CNCC(O)c1ccc(O)c(O)c1.O=C(O)C(O)C(O)C(=O)O (stereo unspecified) [Epinephrine bitartrate] | 1.04
CC1(C(=O)O)CCC2(C)CCC3(C)C(=CC(=O)C4C5(C)CCC(OC6OC(C(=O)O)C(O)C(O)C6OC6OC(C(=O)O)C(O)C(O)C6O)C(C)(C)C5CCC43C)C2C1.N.N (stereo unspecified) [Diammonium Glycyrrhizinate] | 0.924
CCCCCCCCCCCCCCCCCCOP(=O)([O-])OC1CC[N+](C)(C)CC1 [Perifosine (KRX-0401)] | 0.853
COc1c2occc2cc2ccc(=O)oc12 [Methoxsalen] | 0.795
O=C(O)CCCN1CCC(OC(c2ccc(Cl)cc2)c2ccccn2)CC1 (stereo unspecified) [Bepotastine] | 0.942
CN(C)CCCOc1nn(Cc2ccccc2)c2ccccc12.Cl [Benzydamine HCl] | 0.96
CC(C(=O)O)c1ccc2c(c1)[nH]c1ccc(Cl)cc12 (stereo unspecified) [Carprofen] | 0.943
